Measurements reported in PubChem BioAssay AID485313 (National Center for Advancing Translational Sciences (NCATS), 2010).
The campaign covered roughly 320,000 compounds. About 7,600 (2.4%) were called active. Inconclusive results, whose numbers are uncertain, are shown with a selection of clear calls. The call rests on the fitted dose curve; in most records, active means well fitted activation curve with a large enough effect; inconclusive means small, poorly fitted or top-dose-only effect; inactive means no such curve, though single readings can be large or run the other way. No potency is given beside an inconclusive call; the fits are too rough.

test: qHTS Assay for NPC1 Promoter Activators; settings: Huh7 NPC1 promoter luciferase reporter, 24 h; series mostly up to 9.22 µM; further: nearly all actives have a fitted effect of over 60% in size;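 on activation: reporter is driven by a mutant NPC1 promoter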
Procedure, shortened: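 Cells: Huh7 expressing luciferase under the NPC1 promoter, 1500/well. Seeded 2 h, compound added, incubated 24 h at 37 °C. Luciferase reagent, 10 min ambient, then luminescence.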
Potency means the concentration at half of the fitted maximal effect; tags describe the fitted curve by direction and shape.

Structure (SMILES)	Potency
O=C(NCCCN1CCC(Cc2ccccc2)CC1)C1CC(=O)N(C2CCCCCC2)C1 (centres undefined)	inactive
N#C/C(=C/c1cccs1)c1ccccn1	active: 2.82 µM
O=C(Nc1ccc(N2CCCC2)c(Cl)c1)c1ccc(Br)o1	active: 3.55 µM
Cc1ccc(C(=O)N/N=C\c2sccc2C)cn1	inconclusive [activator, single point]
O=[N+]([O-])c1cccc(/C=C/c2ccccn2)c1	inconclusive [activator, partial curve]
NS(=O)(=O)c1cccc(NC(=O)/C=C/c2cccs2)c1	inconclusive [activator, single point]
CC(C)(C)c1ccc(C(=O)CSc2ncn[nH]2)cc1	inconclusive [activator, partial curve]
CCCSc1nnc(NC(=O)Nc2ccccc2OC)s1	inconclusive [activator, single point]
CCn1nc(C)cc1C(=O)N1CCc2c([nH]c3ccccc23)C1c1cc(F)ccc1F (centres undefined)	inconclusive [activator, partial curve]
O=C(/C=C/c1cccc2ccccc12)N1CCOCC1	inconclusive [activator, single point]
O=C(Nc1ccccc1C(F)(F)F)C1CCN(C(=O)Cc2ccccc2)CC1	inactive
Cc1nn(Cc2ccc(Cl)cc2Cl)c(C)c1NC(=O)CCl	inactive
COCCNC(=S)N(CCc1c(C)[nH]c2ccccc12)Cc1ccco1	inactive
COc1ccc(/C=C2\SC(=O)N(CCNC(=O)C3CCN(S(=O)(=O)c4cccs4)CC3)C2=O)cc1	inconclusive [activator, partial curve]
CC1CCN(C(=O)c2cc(-c3ccccc3O)on2)CC1	active: 2.51 µM
Cc1cc(-c2cc(N)n(-c3ccccc3)n2)c(C)n1C1CCCC1	active: 3.55 µM
O=C(Nc1ccn(Cc2ccccc2)n1)c1ccc(F)cc1	active: 2 µM
Cc1nc(CS(=O)c2ccc(Cl)cc2)cc(N2CCOCC2)n1 (centres undefined)	inactive
CCOc1ccccc1/C=N/Nc1nc2ccccc2o1	inconclusive [activator, single point]
Nc1ccccc1SC1CC(=O)N(c2ccc3c(c2)OCCO3)C1=O (centres undefined)	inconclusive [activator, single point]
S=c1[nH]cc(Cc2ccccc2)s1	inactive
CCOc1ccc(NC(=O)c2ccc(NC(=O)COC(=O)Cc3ccc(OC)cc3)cc2)cc1	active: 3.55 µM
Fc1ccccc1C1CCN(Cc2nc(CC3CC3)no2)C1 (centres undefined)	inconclusive [activator, single point]
Cc1ccc(CNc2ccc3c(c2)ncn3C(C)C)cc1	active: 2.24 µM
Cc1cc(=O)oc2cc(NC(=O)c3cccc(S(C)(=O)=O)c3)ccc12	inconclusive [activator, partial curve]
O=C(Nc1ccc(CN2CCOCC2)cc1)c1ccc(Br)cc1	inconclusive [activator, partial curve]
O=C(CCc1ccccc1)Nc1ncc([N+](=O)[O-])s1	inconclusive [activator, partial curve]

Structure (SMILES)	Potency
COc1ccc(C(=O)CN2CCN(c3cc(C)nc4ccccc34)CC2)cc1	inactive
COCCSc1nnc(NC(=O)c2ccco2)s1	inconclusive [activator, partial curve]
CCn1c(SCC(=O)N2CCCC2)nc2ccccc21	inactive
COc1ccc(OC)c(Nc2cc(C)c3ccccc3n2)c1	inactive
Cc1csc2ncc(C(=O)Nc3ccc4c(c3)OCCO4)c(=O)n12	inconclusive [activator, single point]
ClC1(Cl)CC1CSc1nnc(-c2ccncc2)o1 (centres undefined)	inconclusive [activator, partial curve]
CCOC(=O)CSc1nc2ccccc2c(=O)n1NC(=O)c1ccccc1	inconclusive [activator, single point]
CCCCc1ccc(Nc2ncccc2C#N)cc1	inconclusive [activator, partial curve]
COc1ccc2c(c1OC)C(=O)OC2n1c(O)c(N=NC(C)=O)c2ccccc21 (centres undefined)	inactive
COCCN(C(=O)c1ccco1)c1nnc(-c2ccc(OC)cc2)s1	inconclusive [activator, single point]
CC(C)N(CC(O)COc1ccc(CC(N)=O)cc1)CC(O)COc1ccc(CC(N)=O)cc1 (centres undefined)	inactive
C=CCn1c(SCC(=O)Nc2ccc(-c3nc4ccc(C)cc4s3)cc2)nnc1-c1ccccc1	inconclusive [activator, full curve]
Cc1ccc(C(=O)Nc2ccc3c(c2)OCO3)o1	active: 2.82 µM
O=C1CCC(C(=O)N2CCCCO2)CN1CCc1ccccc1 (centres undefined)	inconclusive [activator, single point]
CN1CCN(c2ccc(NC(=O)c3ccc([N+](=O)[O-])o3)cc2Cl)CC1	inconclusive [activator, partial curve]
CCOC(=O)c1ccc(CSc2nnc(N)s2)cc1	inconclusive [activator, partial curve]
O=C1c2ccccc2C(=O)C1c1ccc(Br)cc1	inconclusive [activator, partial curve]
O=C(NCc1cccnc1)/C(=C/c1ccco1)NC(=O)c1ccccc1	inconclusive [activator, single point]
COc1ccc(-c2csc(Nc3ncccc3C)n2)cc1OC	inconclusive [activator, partial curve]
Cc1cc(C)cc(C(=O)Nc2cccc(NC(=O)c3ccco3)c2)c1	inactive
CN(C)C(=O)CSc1nnc(-c2cc(-c3cccs3)nc3ccccc23)o1	inactive
COc1ccc([C@@H](C)NC(=O)c2ccc3oc(C(C)C)nc3c2)cc1	inconclusive [activator, single point]
COc1ccc(NS(=O)(=O)c2cn(C)c(=O)n(C)c2=O)cc1	inactive
CCOc1ccc(-c2nc(-c3ccccc3)no2)cc1OCC	inconclusive [activator, single point]
CCOP(=O)(OCC)/C(=C/N1CCCCC1)NC(=O)c1ccccc1	inactive
Cc1nnc(-c2ccccc2)o1	inactive
COC(=O)c1ccc(N=NNc2ccccc2)cc1	active: 1.41 µM

Structure (SMILES)	Potency
Clc1ccc(OCc2nc(-c3ccccn3)no2)c(Br)c1	active: 0.355 µM
CCCCOc1ccc(-c2cn3ccccc3n2)cc1[N+](=O)[O-]	inconclusive [activator, single point]
COc1ccc(/C=C/C(=O)OCC(=O)N2CCCCCC2)c(OC)c1	inactive
COc1ccc(NC(=O)c2scc(S(=O)(=O)C(C)C)c2N)cc1	active: 2.51 µM
CCCCN(C(=O)c1cc(OC)c(OC)c(OC)c1)C1=CC2CCC(C1)N2C (centres undefined)	inconclusive [activator, single point]
NC(=O)c1ccccc1N/C=C/C(=O)c1ccco1	inconclusive [activator, single point]
O=C(N/N=C/c1ccccn1)NC12CC3CC(CC(C3)C1)C2	inconclusive [activator, partial curve]
Cc1cc(C(=O)Nc2ccc([N+](=O)[O-])cn2)cs1	active: 2.51 µM
COc1c(O)cc2oc(-c3ccc(O)c(O)c3)cc(=O)c2c1O	inconclusive [activator, single point]
COc1ccc(/C=N/n2c(N)nc3ccccc32)cc1OC	inconclusive [activator, single point]
CN(CCC#N)C(=O)CSc1ncnc2sc(-c3ccccc3)cc12	inactive
CCOC(=O)C1(Cc2ccccc2)CCCN(C(=O)c2cnn(CC)c2)C1 (centres undefined)	inconclusive [activator, single point]
COc1cc(CN2CCC(C(=O)NC3CCCC3)CC2)ccc1O	inactive
O=C(c1ccc(Cl)cc1)c1cnc(Nc2ccccc2)s1	inconclusive [activator, partial curve]
COc1ccc(C(=O)NOCc2ccccc2)cc1	inconclusive [activator, single point]
Cc1ccnc(NC(=O)c2cccc3ccccc23)c1	inconclusive [activator, single point]
Cc1cc(Cl)ccc1OCC(=O)NC1CCCC1	inactive
CC(C)(C)NC(=O)CN(C(=O)c1ccc(CN2CCOCC2)o1)c1ccc2c(c1)OCCO2	inactive
O=C(Nc1ccc2c(c1)OCO2)N1CCN(c2ccccc2Cl)CC1	inconclusive [activator, partial curve]
COc1ccc(N(C(=O)c2cnccn2)C(C(=O)NC2CCCCC2)c2ccc(O)cc2)cc1 (centres undefined)	inactive
Cc1ccc(NC(=O)/C=C/c2ccco2)nc1	inconclusive [activator, single point]
COc1ccccc1-c1nn2c(-c3ccco3)nnc2s1	inconclusive [activator, single point]
CS(=O)(=O)c1ccc(C(=O)NNC(=O)c2ccccc2-n2cccc2)cc1	inactive
Cc1ccc(N/C(=C\C(=O)c2ccccc2)C(=O)O)cc1	inconclusive [activator, single point]
CCN(C1CCCCC1)S(=O)(=O)CCNC(=O)c1ccc2c(c1)OCO2	inactive
